PubChem BioAssay AID686979 (National Center for Advancing Translational Sciences (NCATS), 2013)
In all, about 420,000 compounds went through this assay and about 50,000 (12%) were called active. Inconclusive means that the source gave no clear call. Such entries were picked first, then a sample of the others. Calls follow the shape of the dose curve; as a rule, active = well fitted inhibition curve with a large enough effect; inconclusive = small, poorly fitted or top-dose-only effect; inactive = flat fitted curve, though single readings scatter. Potencies of inconclusive entries are left out as doubtful fits.

Assay: qHTS for Inhibitors of human tyrosyl-DNA phosphodiesterase 1 (TDP1): qHTS in cells in presence of CPT; also: nearly all actives have a fitted effect of over 55% in size
Details: chicken DT40 Tdp1-/-;hTDP1 cells + 20 nM CPT, ATP luminescence, 48 h; activity change, negative = growth inhibition: at 46.2 µM (top of the series) unless noted
Outline: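 Chicken DT40 Tdp1-/- cells stably complemented with human TDP1 were seeded at 400 cells/well in medium containing 20 nM camptothecin, exposed to pin-transferred compounds, and grown at 37 °C for at least 48 hr. Viability was read as ATP luminescence.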
% is scaled to controls: 0 for no effect and ±100 for the full control effect; potency is read from the fitted curve at half-maximal effect; tags tell the direction and shape of the fitted curve.

SMILES	Potency	activity change, negative = growth inhibition
Cc1cc(C)n(CC(=O)N/N=C/c2cc(Br)cc([N+](=O)[O-])c2O)n1	inconclusive [inhibitor, single point]	
CS(=O)(=O)c1ccccc1C(=O)Nc1ccc(-c2nc3ccccc3o2)cc1	inconclusive [inhibitor, single point]	
O=C(NCc1ccc(Cl)c(Cl)c1)c1cc(C2CCCCN2C(=O)c2ccccn2)on1 (stereo not given)	active: 10.3 µM	
O=C(NC(NC(=S)Nc1ccc(Cl)cc1)C(Cl)(Cl)Cl)c1ccco1 (stereo not given)	inconclusive [inhibitor, single point]	
COc1ccc(Cl)cc1N(C)C(=O)Cc1noc2ccc(C)cc12	active: 16.4 µM	
CCCCCN1CN(S(=O)(=O)c2cccs2)c2nc3ccccc3nc21	inconclusive [inhibitor, single point]	
CCc1cccc(C)c1NC(=O)Cn1c(=O)n(-c2cccc(C)c2)c(=O)c2c1c1cc(C)ccc1n2C	inconclusive [inhibitor, single point]	
COc1cc2oc(=O)cc(CN3CCOCC3)c2cc1Cl		inactive: -15.5%
COc1ccccc1N1CCN(C(=O)Cn2cnc3sc(C)c(S(=O)(=O)N4CCC(C)CC4)c3c2=O)CC1	inconclusive [inhibitor, single point]	
CCSc1nnc(NC(=O)c2cnccn2)s1		inactive: -3.2%
Nc1nc(C2CCCN2S(=O)(=O)c2ccc(Cl)cc2)cs1 (stereo not given)		inactive: 4.35%
Cc1ccc(NC(=O)C2CCC(CNC(=O)[C@@H]3Cc4ccccc4CN3)CC2)cc1 (stereo not given in full)	inconclusive [inhibitor, single point]	
Cn1c(=O)c(CCc2ccccc2)nc2cnc(N3CCNCC3)nc21	inconclusive [inhibitor, single point]	
O=C(CCCCCN1C(=O)[C@@H]2Cc3ccccc3CN2C1=O)NCCc1ccccc1	inconclusive [inhibitor, single point]	
COC(=O)c1ccccc1NC(=O)COc1ccc(S(=O)(=O)NC(C)C)cc1	inconclusive [inhibitor, single point]	
CCN(C(=O)COC(=O)CCC(=O)c1ccc(Cl)cc1)c1c(N)n(Cc2ccccc2)c(=O)[nH]c1=O	active: 18.4 µM	
CCOC(=O)c1cc2ccccc2n1C1CCN(CCc2ccccc2)CC1	active: 9.2 µM	
COc1ccc(O)c(/C=N/Nc2nc(Nc3ccccc3)nc(-n3nc(C)cc3C)n2)c1	active: 0.58 µM	
O=C(OCCn1c(=S)sc2ccccc21)c1ccccc1		inactive: -5.05%
C/C(=N\NC(=O)c1nnn(-c2nonc2N)c1-c1ccccc1)c1cccnc1		inactive: -5.41%
CC(=O)N1c2ccc(S(=O)(=O)N3CCC(C(=O)N4CCN(c5ccccc5)CC4)CC3)cc2CC1C (stereo not given)	inconclusive [inhibitor, single point]	
COc1cccc(CNC(=O)c2ccc(NC(=O)N3CCCCc4ccccc43)cc2)c1OC	inconclusive [inhibitor, single point]	
CN(Cc1ccccc1)S(=O)(=O)c1ccc(Cl)c(C(=O)N2CCC2)c1	inconclusive [inhibitor, single point]	
O=C(CCc1ccccc1)Nc1nnc(-c2ccc3c(c2)CCCC3)o1	active: 18.4 µM	

SMILES	Potency	activity change, negative = growth inhibition
CC(=O)c1cccc(NC(=O)COc2ccccc2C(=O)c2cc(C#N)c(=O)n(C3CCCCC3)c2)c1	inconclusive [inhibitor, single point]	
O=C(NCc1nnc2n1CCN(Cc1cc3c(cc1Cl)OCO3)CC2)c1cccc(F)c1	inconclusive [inhibitor, single point]	
CC(=O)c1cccc(NC(=O)C(C)n2c(=O)cc(-c3ccccc3)c3c(C)nn(C)c32)c1 (stereo not given)	inconclusive [inhibitor, single point]	
CCCOC(=O)NC1CCS(=O)(=O)C1 (stereo not given)		inactive: 3.72%
Cc1noc(C)c1COc1ccc(C(=O)N2CCCC(C(F)(F)F)C2)cc1 (stereo not given)	inconclusive [inhibitor, single point]	
CCNC(=S)N1CCN(c2nc(-c3cccc(OC)c3)cs2)CC1	active: 10.3 µM	
CCOc1ccc(NC(=O)NCc2ccc3c(c2)OCO3)cc1		inactive: -2.84%
C=C(C)CNC(=S)N/N=C(\C)c1ccc(OC)cc1	active: 3.66 µM	
O=C(NCc1cccs1)C1CCN(c2nccs2)CC1		inconclusive: -31.2% [inhibitor]
Cc1ccccc1-c1cnc(-c2ccncc2)nc1C1CCCN(Cc2ccccc2O)C1 (stereo not given)		inactive: -5.06% [at 9.04 µM]
Cn1c(-c2cccc([N+](=O)[O-])c2)cnc1NCc1cccc([N+](=O)[O-])c1	inconclusive [inhibitor, single point]	
Cc1cc(C)c(C(=O)COC(=O)c2cccc(S(=O)(=O)N3CCOCC3)c2)cc1C	inconclusive [inhibitor, single point]	
CN(Cc1ccccc1)Cc1nc2c([nH]1)c(=O)n(C)c(=O)n2C	inconclusive [inhibitor, partial curve, poor fit]	
Cc1ccn(C(=O)c2ccc(NC(=O)CC(C)C)cc2)n1	inconclusive [inhibitor, single point]	
COc1ccc2c(-c3ccc(S(N)(=O)=O)cc3)c(-c3ccc(S(C)(=O)=O)cc3)sc2c1	active: 23.1 µM	
C[C@@H]1COC(=O)[C@@H](CC(=O)OC(C)(C)C)C/C=C\C[C@H](CC(=O)NCCO)C(=O)N1		inactive: 1.09%
CCOc1ccc(-c2cc(-c3nc(-c4ccc(C)cc4)no3)[nH]n2)cc1	inconclusive [inhibitor, single point]	
CCOC(=O)C1CCCN(C(=O)c2ccc(CS(=O)(=O)Cc3ccccc3C)o2)C1 (stereo not given)	inconclusive [inhibitor, single point]	
COc1cc(NC(=O)COC(=O)c2[nH]c(C)c(C(C)=O)c2C)cc(OC)c1	inconclusive [inhibitor, single point]	
CCCOC(=O)c1ccc(-c2ccc(C=O)o2)cc1		inactive: -23.9%
COc1ccc2ccccc2c1CNC(=O)CC1C(=O)NCCN1CC(C)C (stereo not given)	inconclusive [inhibitor, single point]	
COC(=O)CSc1ncc2c(n1)-c1ccccc1N(Cc1cccc(F)c1)S2(=O)=O		inactive: 11.5%
O=C(COC(=O)Cc1n[nH]c(=O)c2ccccc12)Nc1cccc(C(F)(F)F)c1		inactive: -0.116%
CCCn1c(C(O)c2ccc3c(c2)OCO3)nc2ccccc21 (stereo not given)	inconclusive [inhibitor, partial curve]	

SMILES	Potency	activity change, negative = growth inhibition
CCN1C(=O)c2ccccc2S(=O)(=O)c2ccc(C(=O)NCc3ccccc3Cl)cc21	inconclusive [inhibitor, single point]	
CCCc1nnc(NC(=O)CCC(=O)N2CCN(Cc3cc(F)ccc3OC)CC2)s1	inconclusive [inhibitor, single point]	
CSc1ccc(CN(C)C(=O)CNC(=O)CNS(=O)(=O)c2ccc(C)c(C)c2)cc1	inconclusive [inhibitor, single point]	
CCCNC(=O)CSc1nnc(-c2ccccc2Br)n1-c1cccc(C(F)(F)F)c1		inconclusive: -36% [inhibitor]
CN(C(=O)COC(=O)C1=COCCO1)c1c(N)n(Cc2ccccc2)c(=O)[nH]c1=O		inactive: 5.7%
COc1ccc(-c2ccc(C(=O)NCc3ccc(C(F)(F)F)cc3)c3occc23)c(C)c1	active: 18.4 µM	
CCOC(=O)N1CCC(N2Cc3cccc(C(=O)N4CCN(c5cccc(C)c5C)CC4)c3C2=O)CC1	inconclusive [inhibitor, single point]	
O=C1NC[C@H](Cc2ccccc2)N(CC2CCN(CCc3ccc(-c4ccccc4)cc3)CC2)C1=O	active: 20.6 µM	
Cc1ccc(-n2ncc3c(NCc4cccnc4)ncnc32)cc1C	active: 20.6 µM	
Cc1cc(C(=O)C(=O)Nc2nnc(C(C)C)s2)c(C)n1-c1ccccc1	inconclusive [inhibitor, partial curve]	
COc1ccc(-c2csc(NC(=O)C3COc4ccccc4O3)n2)cc1OC (stereo not given)	active: 16.4 µM	
CC(NC(=O)C(Cc1ccccc1)n1cccc1)c1ccccc1 (stereo not given)	inconclusive [inhibitor, single point]	
Cc1ccc(C(=O)CNc2ccc(C)c(Cl)c2)cc1	inconclusive [inhibitor, single point]	
CCc1cccc(C)c1NS(=O)(=O)c1c(C)nc2sccn2c1=O	inactive	
CCC(C)Cn1c(O)cc2nn(-c3nc4ccccc4s3)c(=O)c-2c1C (stereo not given)	active: 14.6 µM	
Cc1ccc(OCc2nnc(SCc3cc(=O)[nH]c4ccccc34)o2)cc1		inactive: -4.44%
Nc1nnc(/C=C/c2cccc([N+](=O)[O-])c2)s1		inactive: -3.22%
CC(C)c1c(C(=O)NCc2ccccn2)cnn1-c1nccc(-c2ccccc2F)n1	inconclusive [inhibitor, single point]	
C#CCN1C=CC(=O)[C@@H](OC(=O)Nc2ccc(C)cc2)[C@H]1c1ccccc1Br	inconclusive [inhibitor, single point]	
COC(=O)N/N=C/c1cn(CC(C)COc2ccccc2)c2ccccc12 (stereo not given)	inconclusive [inhibitor, single point]	
CCN(CC)S(=O)(=O)c1ccc2c(c1)N(CC(=O)N1CCN(c3ccc(Cl)cc3)CC1)C(=O)CO2	active: 16.4 µM	
COc1ccc(CCNC(=O)C2CCN(C(=O)c3cccc(Cl)c3)CC2)cc1OC	inconclusive [inhibitor, single point]	
